This is one part of the list. Each Rep nickase domain was tested in vitro on the same pool of single strands (1 h at 37 °C, 3 µM enzyme); the outer parts of the 90-letter strands are left off. Numbers give uncut DNA relative to the enzyme-free pool, as log2; more negative means more cut, near 0 not cut, and no call is made. Because reads are shares of a total, they shift together, so uncut sequences can rise above 0 when many others are cut.
Tests used:
Test in all cases: uncleaved DNA left, log2 of reads against the no-enzyme library (log2 ratio); higher = less cleavage (more negative = more Rep cleavage of the k-mer); sequences stand for … in CTCGTCCG…ACCGGAGA
[1] = tested on: T1, Rep nickase domain of Muscovy duck circovirus
T1 sequence (Rep 1-111, printed without the tag): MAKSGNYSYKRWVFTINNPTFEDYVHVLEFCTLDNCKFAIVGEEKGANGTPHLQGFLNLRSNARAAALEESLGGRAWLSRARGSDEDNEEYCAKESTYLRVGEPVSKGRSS
Description: (§1)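 A pool of 90-nt single-stranded DNAs with seven random bases just before the constant AC of the nick site (name = the seven bases) was cut by 3 µM recombinant His6-SUMO-tagged Rep nickase domain (300 nM DNA, 50 mM HEPES pH 8.0, 50 mM NaCl, 1 mM MnCl2, 1 h, 37 °C, three replicates). Uncut DNA was amplified and sequenced.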

[2] = tested on: T2, Rep nickase domain of banana bunchy top virus
T2 sequence (Rep 1-94, printed without the tag): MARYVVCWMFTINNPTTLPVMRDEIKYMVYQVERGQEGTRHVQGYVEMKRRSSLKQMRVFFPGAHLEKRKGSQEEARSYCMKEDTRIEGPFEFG
Description: as §1

[3] = tested on: T3, Rep nickase domain of cabbage leaf curl virus
T3 sequence (Rep 1-116, printed without the tag): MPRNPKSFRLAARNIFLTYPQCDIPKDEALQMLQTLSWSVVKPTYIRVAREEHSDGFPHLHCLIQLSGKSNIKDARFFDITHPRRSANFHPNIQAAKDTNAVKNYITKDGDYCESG
Description: as §1

[4] = tested on: T4, Rep nickase domain of chickpea chlorotic dwarf virus
T4 sequence (Rep 1-124, printed without the tag): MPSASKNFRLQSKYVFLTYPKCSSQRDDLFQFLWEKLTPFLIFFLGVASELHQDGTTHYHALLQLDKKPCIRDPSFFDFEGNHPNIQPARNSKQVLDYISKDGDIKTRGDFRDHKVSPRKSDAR
Description: as §1

[5] = tested on: T5, Rep nickase domain of faba bean necrotic yellows virus
T5 sequence (Rep 1-98, printed without the tag): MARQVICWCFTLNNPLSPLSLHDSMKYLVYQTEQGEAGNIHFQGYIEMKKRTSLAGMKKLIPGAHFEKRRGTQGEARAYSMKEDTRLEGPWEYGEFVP
Description: as §1

[6] = tested on: T6, Rep nickase domain of maize striate mosaic virus
T6 sequence (Rep 1-117, printed without the tag): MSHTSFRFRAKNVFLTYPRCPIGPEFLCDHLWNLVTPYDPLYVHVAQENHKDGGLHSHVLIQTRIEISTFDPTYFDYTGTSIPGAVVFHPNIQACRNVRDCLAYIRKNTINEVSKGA
Description: as §1

[7] = tested on: T7, Rep nickase domain of porcine circovirus 2
T7 sequence (Rep 2-116, printed without the tag): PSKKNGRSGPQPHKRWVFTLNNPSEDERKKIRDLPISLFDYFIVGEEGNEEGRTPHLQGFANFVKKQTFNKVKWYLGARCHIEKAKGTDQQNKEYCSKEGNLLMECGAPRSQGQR
Description: as §1

[8] = tested on: T8, Rep nickase domain of tomato golden mosaic virus
T8 sequence (Rep 1-124, printed without the tag): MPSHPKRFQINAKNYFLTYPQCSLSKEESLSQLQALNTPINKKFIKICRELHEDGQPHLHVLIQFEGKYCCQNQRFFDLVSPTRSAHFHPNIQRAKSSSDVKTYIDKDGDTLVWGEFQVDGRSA
Description: as §1

[9] = tested on: T9, Rep nickase domain of tomato yellow leaf curl virus
T9 sequence (Rep 1-136, printed without the tag): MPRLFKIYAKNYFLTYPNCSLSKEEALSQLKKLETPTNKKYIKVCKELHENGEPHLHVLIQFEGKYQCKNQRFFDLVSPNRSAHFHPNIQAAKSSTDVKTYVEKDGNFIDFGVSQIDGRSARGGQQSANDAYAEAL
Description: as §1

[10] = tested on: T10, Rep nickase domain of wheat dwarf virus
T10 sequence (Rep 1-137, printed without the tag): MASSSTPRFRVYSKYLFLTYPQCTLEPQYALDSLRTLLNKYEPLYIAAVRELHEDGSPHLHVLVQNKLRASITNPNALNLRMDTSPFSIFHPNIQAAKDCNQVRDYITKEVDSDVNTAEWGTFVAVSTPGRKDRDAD
Description: as §1

| Sequence | uncleaved DNA left (log2) [1] | uncleaved DNA left (log2) [2] | uncleaved DNA left (log2) [3] | uncleaved DNA left (log2) [4] | uncleaved DNA left (log2) [5] | uncleaved DNA left (log2) [6] | uncleaved DNA left (log2) [7] | uncleaved DNA left (log2) [8] | uncleaved DNA left (log2) [9] | uncleaved DNA left (log2) [10] |
| --- | --- | --- | --- | --- | --- | --- | --- | --- | --- | --- |
| CGCTGGA | 0.0291 | 0.00458 | -0.0658 | 0.213 | -0.0373 | 0.395 | 0.0277 | 0.0449 | -0.205 | 0.0213 |
| TGGTGTT | -2.31 | -0.279 | -0.366 | -1.41 | -1.01 | 0.582 | -3.19 | -0.319 | -0.0363 | -0.492 |
| GTAGTGC | -0.102 | 0.0209 | -0.04 | 0.0189 | -0.00866 | -0.459 | -0.105 | -0.00778 | 0.0269 | -0.039 |
| CATGCAC | -0.00684 | -0.143 | -0.691 | -0.708 | 0.0426 | -1.18 | 0.0553 | -0.141 | -0.0558 | -0.111 |
| AAAGAAC | -0.00871 | 0.0548 | -0.255 | -0.212 | 0.0222 | -0.472 | 0.163 | 0.0495 | -0.11 | 0.0492 |
| GAGAACT | -0.0648 | -0.16 | 0.418 | -0.838 | -0.208 | 1.59 | -2.66 | -0.0242 | 0.0427 | 0.149 |
| GTTCAGC | 0.0683 | 0.125 | 0.261 | 0.699 | 0.0752 | 0.747 | 0.0907 | 0.0557 | 0.032 | 0.0565 |
| CGCATAC | 0.0377 | -0.0868 | -0.0897 | -0.505 | 0.0731 | -0.61 | 0.15 | -0.0686 | -0.05 | -0.131 |
| GATCCTA | -0.113 | -0.000325 | 0.197 | 0.0741 | -0.0348 | 0.987 | 0.00633 | -0.0504 | 0.0882 | 0.184 |
| GATCAAA | 0.162 | 0.247 | 0.464 | 0.965 | 0.169 | 1.13 | 0.276 | 0.183 | 0.189 | 0.296 |
| CAAAGCC | 0.0538 | 0.0412 | -0.31 | -0.688 | -0.012 | -0.872 | 0.0584 | -0.0476 | -0.000114 | -0.0778 |
| CTAAGTT | 0.0356 | -0.143 | -3.36 | -2.96 | -0.195 | -1.42 | -0.205 | -0.665 | -0.0876 | -1.45 |
| CAGCCTG | 0.0601 | 0.108 | 0.149 | 0.835 | -0.016 | 1.44 | 0.126 | -0.0103 | -0.0559 | -0.00599 |
| TTCTTTG | -0.246 | -0.25 | -0.517 | -0.938 | -0.0954 | -1.2 | -0.0957 | -0.255 | -0.0613 | -0.112 |
| TACCTGA | -0.0182 | -0.0654 | -0.0352 | -0.775 | -0.0648 | 0.0513 | -0.368 | -0.0215 | -0.039 | -0.0453 |
| GCTGGTG | 0.0907 | -0.115 | -0.565 | -0.336 | 0.00596 | -0.81 | 0.118 | 0.0677 | -0.012 | -0.183 |
| GTGGGTT | -0.145 | -0.0673 | 0.328 | 1 | -0.0604 | 1.73 | 0.12 | -0.0999 | -0.0605 | 0.0191 |
| GGTTGAT | -0.126 | -0.0856 | 0.353 | 1.18 | -0.139 | 1.73 | -0.402 | -0.0224 | -0.0579 | 0.0604 |
| ATACAAC | -0.0631 | 0.0337 | -0.121 | -2.37 | 0.0583 | -0.672 | 0.0766 | 0.058 | -0.0823 | 0.0238 |
| TTGATCG | 0.00178 | -0.199 | -0.908 | -0.249 | -0.036 | -1.08 | 0.176 | -0.199 | 0.00527 | -0.125 |
| AATATAG | -0.0285 | -0.0826 | -0.857 | -0.456 | -0.00129 | -1.14 | 0.154 | 0.027 | 0.0302 | -0.0194 |
| CTTAGTG | 0.0372 | 0.0218 | -0.643 | -0.683 | 0.00981 | -1.24 | 0.201 | 0.0352 | 0.0848 | -0.0713 |
| ATAACTA | -0.0375 | 0.0505 | -0.353 | -2.14 | -0.000578 | -0.704 | -0.123 | 0.0427 | -0.0279 | -0.0251 |
| TCTCTAA | 0.0255 | -0.0725 | 0.085 | -0.278 | 0.0286 | -0.338 | 0.0359 | -0.0207 | -0.111 | 0.0215 |
| CAATAAG | 0.173 | 0.152 | -0.668 | 0.121 | 0.00156 | -0.406 | 0.294 | -0.00306 | 0.0762 | 0.0485 |
| ATAGCTA | -0.114 | -0.0704 | -0.144 | -0.56 | -0.0485 | -0.266 | -0.0673 | -0.0295 | -0.123 | -0.0317 |
| CGAGTGG | 0.0924 | 0.158 | 0.0764 | 0.651 | 0.122 | 0.808 | 0.257 | 0.194 | 0.171 | 0.259 |
| AAATAAC | -0.0134 | -0.0362 | -1.37 | -2.53 | -0.0438 | -1.2 | -0.125 | -0.096 | -0.092 | -0.199 |
| AACTCGA | 0.0551 | -0.0355 | -0.363 | -0.863 | 0.0309 | -1.1 | -0.136 | -0.0442 | 0.075 | -0.144 |
| TATGTTC | 0.0824 | -0.00789 | 0.0456 | -1.94 | 0.0301 | -0.522 | -0.284 | -0.0383 | 0.0389 | -0.0841 |
